Measurements as given in the supplement of paper PMC3724861.
This is one part of the list.

Tested on: T1, Caupolican (Caup) homeodomain DNA-binding domain
T1 sequence: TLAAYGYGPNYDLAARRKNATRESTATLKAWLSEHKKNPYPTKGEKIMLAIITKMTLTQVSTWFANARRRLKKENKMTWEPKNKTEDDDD
Experiment: PBM E-score (8-mer, recovered from the published 9-mer minima) (E-score (dimensionless, -0.5 to 0.5)); Drosophila protein; higher = stronger relative binding preference, active = 0.31 or more
How it was run: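 Caup's homeodomain DNA-binding domain (residues 214-303) was made by in vitro transcription and translation and applied at 100 nM to custom-designed protein binding microarrays. Each value is an enrichment score that gives relative binding preference for a short DNA word, with higher meaning stronger. The 8-mer values were recovered from published 9-mer scores, each of which was the minimum of its two constituent 8-mer scores. A cutoff of 0.31 marks candidate sites.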

Sequence	PBM E-score
CCAGGTCA	inactive: -0.0785
AGCAAACA	inactive: 0.219
GGGTTAAC	inactive: -0.0133
CATTGAGA	inactive: 0.00083
GGATTCCC	inactive: -0.176
ACTACCTA	inactive: 0.0763
GGTTTGCA	inactive: 0.0165
AGCTTGGG	inactive: -0.153
CGACGAAG	inactive: -0.0422
CTATAGAC	inactive: 0.0171
GTGTAGAA	inactive: 0.276
GCTCTGCC	inactive: -0.26
CCCTAGCA	inactive: -0.147
CCAGAACC	inactive: -0.0196
CCAAAGCA	inactive: -0.072
AATTACCC	inactive: -0.0159
AACCATTG	inactive: 0.00918
ATCCTTGC	inactive: -0.0799
GAAATGAA	inactive: 0.0795
CAGAATGA	inactive: 0.0488
CACCCCGA	inactive: -0.104
TGTTCTAA	inactive: 0.183
AACGGGAC	inactive: -0.137
ATCCTCGC	inactive: -0.15
CGCGCGCA	inactive: -0.138

Sequence	PBM E-score
GCACGTCC	inactive: -0.0893
ACCCGGGC	inactive: -0.196
ATAAGCAG	inactive: 0.0243
AAGTTACT	inactive: 0.0883
GTTGACCA	inactive: -0.0437
CCTAGAGG	inactive: -0.144
CGTACGGA	inactive: 0.0187
ACTATACC	inactive: 0.0953
GTGTGCTA	inactive: 0.0438
ATAACACC	inactive: 0.277
AATGAAAG	inactive: 0.0121
AGCGAGTG	inactive: -0.0342
TCAATACA	inactive: 0.235
GAGCGTCA	inactive: -0.0974
CGGTATGA	inactive: 0.0746
GAGCGAAC	inactive: -0.0727
AGCCGAGC	inactive: -0.27
CATGCGTC	inactive: 0.0489
ATATCTCG	inactive: 0.0306
AGGGTAGC	inactive: -0.121
AGATTAAG	inactive: 0.0165
GGGTGAAA	inactive: 0.0133
GGTGTCTA	inactive: 0.169
AGAGCACC	inactive: -0.17
ATTAACTC	inactive: 0.0863

Sequence	PBM E-score
GCCGTGAA	inactive: -0.0891
TGGCGCAA	inactive: -0.194
AGTCGACG	inactive: 0.0176
AAAAAAGA	inactive: -0.0444
ACGTGATA	inactive: 0.134
TCACCGAA	inactive: 0.0363
AATTAGCA	inactive: 0.138
CTACTCGA	inactive: 0.0537
AATAAACC	inactive: 0.0785
TCGCCAGA	inactive: -0.115
ATTAACGC	inactive: -0.015
ACATAAAC	inactive: 0.287
AGCGGACA	inactive: 0.0209
AAGTGTTA	inactive: 0.218
ACCGAAAG	inactive: -0.0307
AGACAGCA	inactive: -0.00319
CATACTCG	inactive: -0.0067
ACACGAGA	inactive: 0.216
CAGTCCAA	inactive: -0.0567
CGCCCGAC	inactive: -0.13
AAATGGTT	inactive: 0.101
AATATAAC	inactive: 0.176
ATGAAGTC	inactive: 0.0064
TAAGCATA	inactive: 0.0961
AATCCACG	inactive: -0.0597

Sequence	PBM E-score
GTAGGATA	inactive: 0.0559
ACGAGAAG	inactive: -0.0159
CTAGTACC	inactive: 0.201
ATGGCAGA	inactive: -0.0192
ATTGATCG	inactive: 0.0888
AAACTGCG	inactive: -0.101
ATGCGCGG	inactive: -0.101
GTTTGTTA	inactive: 0.225
AATCCTTC	inactive: -0.00179
CACACCAC	inactive: 0.0793
TACGTTCA	inactive: 0.06
CAACGTGA	inactive: 0.0867
ATGATGCG	inactive: 0.0059
CCCGAGTC	inactive: -0.126
CCGCGCCG	inactive: -0.199
GCGGAACC	inactive: -0.0906
ACGCTACA	inactive: 0.191
GGTCCGAA	inactive: -0.0849
ACACCAAC	inactive: 0.0942
TGTTGTAA	active: 0.377
AGACTAGA	inactive: 0.0325
TACATATA	active: 0.379
CCATCTTC	inactive: -0.0417
TCACAGGA	≥ 0.124
AAAACTTA	inactive: 0.107

Sequence	PBM E-score
AGCCAAGG	inactive: -0.186
CCTTGCCC	inactive: -0.22
AATTTCAG	inactive: -0.0602
AATAACCG	inactive: -0.05
ATTTACAA	active: 0.361
TCCGTCAA	inactive: -0.00579
ATAACTTG	inactive: 0.197
GACGTGAA	inactive: -0.0186
GAAGCGGC	inactive: -0.179
AACTAGCC	inactive: 0.0343
AGGGGGGC	inactive: -0.385
ACGGCCCC	inactive: -0.253
ACAGCAAG	inactive: 0.148
CAGGAACA	inactive: 0.236
CTAGACAA	inactive: 0.0936
CTAGTCGC	inactive: -0.0329
CGCTCGGA	inactive: -0.127
CAGTTATA	inactive: 0.103
CCCGATAA	inactive: -0.0184
TCTGTGAA	inactive: 0.0782
TATATTCA	inactive: 0.157
GTATTGCA	inactive: 0.114
CCAAGTGG	inactive: -0.0542
CAATAACG	inactive: 0.0801
CCGTAGAC	inactive: -0.103

Sequence	PBM E-score
ACCTTCCT	inactive: -0.0679
AACCCCTC	inactive: -0.0731
AGTTCCAC	inactive: 0.0412
TATATGGA	inactive: 0.122
TACGCTAA	≥ 0.0305
ACGTGTTC	inactive: 0.279
CATCAGCG	inactive: 0.00046
CAAAAAAA	inactive: 0.00316
AGATTCAC	inactive: -0.0373
AACCAGCC	inactive: -0.0179
CGGCGCGC	inactive: -0.198
ATCCAAAC	inactive: 0.0766
CCAATACC	inactive: -0.0694
GCACCGGA	inactive: -0.174
CGAGTGGA	inactive: -0.0323
CAACATGC	active: 0.317
CTGTTTTA	inactive: 0.107
AAAAGGTC	inactive: -0.0926
TAGGCCGA	inactive: -0.151
CTTATTTA	inactive: 0.0764
CTTGTCCA	inactive: 0.287
CAACAATC	inactive: 0.258
ACCTAGAT	inactive: -0.00612
CGTCCGTA	inactive: -0.0112
GTCACAGA	inactive: 0.0877

Sequence	PBM E-score
ATAGCGAA	inactive: 0.132
CCCTCTAA	inactive: -0.144
CAACTCGC	inactive: 0.0673
AGACGGTC	inactive: -0.146
TGAGAGAA	inactive: -0.0365
CACGTACG	inactive: 0.0711
CCGGGCAG	inactive: -0.2
CAGCCGCG	inactive: -0.205
ATACAGTA	≥ 0.238
AAGCGTTG	inactive: 0.016
CTATAGCA	inactive: -0.00614
AGGAGAGC	inactive: -0.0646
AGAAGACA	inactive: 0.147
CGGAGCCC	inactive: -0.335
TATTTCCA	inactive: 0.0618
CGTGGTAC	inactive: 0.139
TCCATACA	inactive: 0.139
AAAAATGG	inactive: 0.0677
ACTTGACC	inactive: -0.0545
ACCGTGAC	inactive: 0.0634
AGCGTCTC	inactive: -0.163
AAGGACCG	inactive: -0.18
CAGCGTAG	inactive: -0.0479
CATGTCGG	active: 0.357
GACACGTA	active: 0.348

Sequence	PBM E-score
GGCTCACA	inactive: -0.0663
CCTCCGTA	inactive: -0.118
AGTCCTAG	inactive: -0.0619
GAGTATGC	inactive: 0.0129
CTACTTAA	inactive: -0.00454
CATTCAAG	inactive: -0.0431
CCTCCTGA	inactive: -0.0907
CATCGAGC	inactive: -0.0628
CAGTCGTC	inactive: -0.114
GAATGGCC	inactive: -0.151
CTCCGGTC	inactive: -0.212
GGACTTAC	inactive: 0.00601
CCGGTCCG	inactive: -0.27
CCCGTCTC	inactive: -0.23
TCCGAGGA	inactive: -0.0519
ATGAGATA	inactive: 0.0316
GTCATGTA	active: 0.43
GCGATCAA	inactive: 0.0681
TCAATCCA	inactive: 0.0169
CTAAGCAG	inactive: -0.0907
ATGGGTTG	inactive: 0.0997
GCACCCAA	inactive: -0.162
AGCTAGAC	inactive: -0.121
ACGAGCCT	inactive: -0.0401
ACCAGCAA	inactive: 0.0242

Sequence	PBM E-score
CTACCCTC	inactive: -0.192
AGCGTATC	inactive: -0.0326
GCCCTCGA	inactive: -0.164
CGTAGGCC	inactive: -0.133
GATTGGCA	inactive: -0.0454
ATCGTAGC	inactive: 0.0466
GACAACTA	inactive: 0.299
AAGCATAA	inactive: 0.0796
GATGCTAA	inactive: -0.0224
ACTCCGGC	inactive: -0.186
ACGGCGAC	inactive: -0.12
AATTTAGG	inactive: 0.0519
AGTGTGAA	≥ 0.151
AGCGTCCG	inactive: -0.102
GAATGTTA	inactive: 0.234
ATGCATCG	inactive: 0.108
AAAGAGAC	inactive: -0.0571
CCAGCAAC	inactive: -0.0279
CGGATTTA	inactive: -0.0143
AGACATAC	inactive: 0.222
AGAGGCAT	inactive: -0.106
CTAACGGC	inactive: -0.128
